# In all, about 33,000 sequences were measured (“E-score (-0.5 to 0.5)”: median about -0.01, highest 2% from about 0.26 on). This is one part of the list.
# Target: Ste12 (UniProt P13574)
# Test: PBM E-score (8-mer binding enrichment) (E-score (-0.5 to 0.5)); higher = stronger / more preferred TF binding; most listed sequences are background and not binding sites
# Conditions: protein concentration: 200 nM; construct: GST-DNA-binding domain
# In short: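 Yeast transcription factors carrying a GST tag, as full-length proteins or DNA-binding domains, were produced by PURExpress in vitro transcription/translation. About 100-200 nM protein was applied to universal all-10-mer Agilent arrays, double-stranded by primer extension on fresh or once-stripped slides. Bound protein was detected with fluorescent anti-GST, and scans were normalised with masliner. The Universal PBM Analysis Suite gave each ungapped eight-base word, pooled with its reverse complement, an E-score, a modified Wilcoxon-Mann-Whitney statistic.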
row,Sequence,PBM E-score
1,CACTCTCC,-0.0276
2,GCTAGAAA,0.183
3,GAATGTCA,-0.00591
4,CTCACACA,0.0382
5,CCAGACCA,0.0148
6,AGAATTAC,0.0585
7,ACGCTAGC,-0.23
8,ATGGGAGC,-0.0972
9,TAGCCATA,-0.0521
10,CAACTGGA,-0.0914
11,GATGCGCC,-0.0658
12,AAGAATTG,-0.0081
13,GACACACC,0.0782
14,TGAGCCAA,0.0621
15,CTATGCAC,-0.0852
16,ATGGGTCA,-0.0892
17,ACAAATTA,0.263
18,ATCTCCCC,-0.0162
19,AGTGCATA,-0.143
20,ACTACGCA,-0.118
21,CAGAGAGC,-0.0939
22,AACGGGCC,-0.0977
23,CAACCATC,0.109
24,GGTTCGAC,-0.0189
25,CGTTCTCA,0.0637

row,Sequence,PBM E-score
1,CCCTTAGA,-0.0808
2,TGACACAA,0.199
3,AATGTGTC,0.131
4,CCATCCCA,-0.0961
5,GCCGCCCC,0.307
6,ATCGGCAA,-0.00833
7,ACTGCAGC,-0.0252
8,ACCGCCAC,-0.0369
9,AAGGAATT,0.0259
10,TGTCGACA,-0.0855
11,AGGTGAAG,-0.00052
12,GTACATAA,-0.0371
13,ACAGATTC,0.0802
14,GCACCGCA,-0.0352
15,AAAGAGTC,-0.165
16,AAGTGTCT,-0.0707
17,ATTTACAG,0.016
18,CATGATCA,0.0535
19,TAAGAGTA,0.0931
20,CCAGAGGC,-0.019
21,CTGCATTA,-0.193
22,GGACTGGA,-0.249
23,AGGCTATA,0.0193
24,ACCTGGGG,-0.191
25,CCGCTTAA,0.0545

row,Sequence,PBM E-score
1,CGACGCCC,0.0897
2,AGACGCCA,-0.0342
3,GCGATCCA,-0.0928
4,TACCTTCA,0.101
5,CCAGCCAG,-0.138
6,AGATATTA,0.064
7,AAACTCGG,5e-05
8,ACCTCCTG,-0.161
9,ACCCTGGG,-0.0447
10,CATCAGCC,-0.0864
11,GATCAAGA,-0.0068
12,AATGAAAC,0.44
13,AACGCGGG,0.118
14,CACCGAGG,-0.121
15,CCGCGCGC,0.24
16,AACCGTGG,-0.0665
17,ACCCAGTA,-0.0623
18,GTGGAGTA,-0.0195
19,ACGTCTCG,-0.0712
20,CATTAATA,0.251
21,AATAGAGA,0.0494
22,GCATAGAA,0.0371
23,CAAGCGAG,0.14
24,CATCCCCA,0.0232
25,ACGAACGG,0.101

row,Sequence,PBM E-score
1,AAGCAGCT,-0.0502
2,AGAGTCCC,-0.213
3,ATGTGCAC,-0.037
4,GGTAGACA,0.00514
5,ATCTCTTA,0.197
6,CTGCTGCC,-0.0246
7,CGGATAAA,0.149
8,CCCGACTA,0.0472
9,TATTGGAA,-0.00217
10,ACTTTACA,0.241
11,AGGCTCGG,-0.112
12,ATTGCCGG,-0.0557
13,CAGCGCAC,-0.118
14,CGCTCTAC,-0.1
15,AGAAACCG,0.182
16,GTCTGATA,0.16
17,GCAGGGGC,-0.0825
18,ATGCGGCA,0.123
19,CTCGACGA,-0.139
20,CCTGCTCG,-0.19
21,CTCAGGGA,-0.176
22,GCCAATCC,0.0945
23,GATCGCTA,-0.0576
24,GCACTGGA,-0.307
25,AAAGTAGA,0.0854

row,Sequence,PBM E-score
1,CTAAGGGC,-0.0565
2,GCAATTTA,0.172
3,AGAGTGCC,-0.228
4,CGGCGGAG,0.111
5,ATAATCAA,0.151
6,CCATCCGA,0.127
7,ATTTGACA,0.141
8,TATGATAA,0.131
9,AAACGCAT,0.0934
10,TCGGGAAA,0.175
11,GTCTAATA,-0.00905
12,AGTCCCTA,-0.137
13,GGGTCAAA,0.0841
14,ATGCGCAG,-0.0835
15,ATAGGATA,0.0716
16,GTTTCCAA,0.218
17,CTAACAAC,-0.00345
18,AACTTACC,0.0612
19,GACTAAAA,0.254
20,ACGTATAG,-0.0188
21,CGACCGCC,0.0385
22,TAAAATCA,0.112
23,CACGGAGA,-0.0746
24,AACATGTT,0.135
25,CGGGCACA,0.00379

row,Sequence,PBM E-score
1,GCCGATAA,-0.12
2,CTCCAGGA,-0.112
3,AGTACTTG,-0.0362
4,CGAATATA,0.0749
5,CGATCAGA,-0.12
6,ACCTCAAT,-0.103
7,TAATTGGA,0.14
8,AAGTTTCG,0.175
9,AAGTGATA,0.079
10,AACAGGCC,-0.022
11,ATGTAATG,0.122
12,CCAAACCC,0.194
13,CAAGCCTC,-0.143
14,TTCAGAAA,0.215
15,GGAGCAAA,-0.0132
16,CGGGGCGC,-0.0307
17,ACGGCGGG,0.0447
18,AAAAGCCC,0.00616
19,AGTGAGGA,0.00496
20,AAAGCTTG,0.0426
21,GGGTTCTA,-0.0297
22,GCGCAGGA,-0.22
23,CTTCTATA,0.0173
24,CATACGAG,-0.0837
25,AATACCCT,0.0119

row,Sequence,PBM E-score
1,CCTTACCC,-0.0323
2,GCTTCCAA,-0.0696
3,GCTTTGCC,-0.0625
4,AGCGGCGA,0.131
5,AGTCAATA,0.0771
6,ACGGATCA,0.00359
7,CCGGTATA,0.109
8,AAATTCTA,0.0535
9,AACCTGGG,-0.231
10,GCAAAGTA,0.0178
11,TCCCCACA,-0.0875
12,TTAACTAA,0.221
13,AAGGTTGT,-0.0248
14,CCCGCACA,0.023
15,ACCTTATC,0.108
16,GCCTTCTA,-0.101
17,AGCCTCAA,-0.246
18,CCGGTGGC,-0.176
19,AAGACGGT,-0.13
20,GTTGTGCA,-0.196
21,GTTTTTGA,0.236
22,ATGTACTC,-0.0594
